The text below walks through data of the RNAGym collection of RNA variant scans (doi:10.1101/gad.245936.114).

This sample is rich in variants without activity.

B1: tRNA (parent)
chain: CUCUCGGUAGCCAAGUUGGUUUAAGGCGCAAGACUUUAAUUUAUCACUACGAAAUCUUGAGAUCGGGCGUUCGACUCGCCCCCGGGAGAUUUUUUCCUCGAGCAA

The variants in this data set derive from B1. The experiment in a line: nonsense suppression (GFP-seq) (ratio to wild type); higher = more function; SUP4oc tRNA, yeast GFP reporter sort-seq. An outline of the steps:
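Yeast carrying genome-integrated SUP4oc tRNA variants from a library with ~3% random mutations were grown in raffinose/galactose medium with 80 mg/L adenine. Each strain also carried a galactose-driven GFP ochre reporter and RFP. Cells were sorted into GFP/RFP bins, and each bin was Illumina-sequenced (phred ≥30). Nonsense suppression (GFPSEQ) is the bin median GFP/RFP, weighted by each variant's estimated cell share per bin, relative to wild-type SUP4oc; variants needed ≥100 reads and ≥30 cells.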
Take U21A G65A: the nonsense suppression is ≤ 0.026.
As to G19U A24U C34U U63G, the nonsense suppression was ≤ 0.026.
For the variant C34U G86C, the nonsense suppression was ≤ 0.026.
In the case of C11U G28U A60C it was ≤ 0.026.
With G10U U76C G86U, the nonsense suppression is ≤ 0.026.
With A62G C79G, the nonsense suppression was ≤ 0.026.
With C82A A89U, the nonsense suppression is ≤ 0.026.
For the variant A9U C11U A74G, the nonsense suppression is ≤ 0.026.
A14G A23U G88U: the nonsense suppression was ≤ 0.026.
On to A60U U70A C75A U76A, for which the nonsense suppression was ≤ 0.026.
Regarding G10A G32C U35C, the nonsense suppression was ≤ 0.026.
Turning to C5U G7U G25A, the nonsense suppression is ≤ 0.026.
Take G10A A14U C27G C29G G86A A89G: the nonsense suppression was ≤ 0.026.
In the case of U22G C27A C80A, the nonsense suppression was ≤ 0.026.
Turning to C3G C64U C80A, the nonsense suppression is ≤ 0.026.
For the variant C5G U57C, the nonsense suppression is ≤ 0.026.
In the case of C5G G32C C72U it was ≤ 0.026.
For the variant A13C A23G C29U C83G, the nonsense suppression is ≤ 0.026.
Take G18C A33G U58A G78A: the nonsense suppression is ≤ 0.026.
As for C3A U4C, the nonsense suppression amounted to 0.191.
For U20C G25U C27G G85C, the nonsense suppression was ≤ 0.026.
For C29A G32A C56U U63C, the nonsense suppression was ≤ 0.026.
Turning to C3U A9C G88C, the nonsense suppression was ≤ 0.026.
As for U20G C64U G84A, the nonsense suppression was ≤ 0.026.
On to C12A G26U U63G, for which the nonsense suppression was ≤ 0.026.
Under U17G U21A stands 1.16.
For C75A C77G, the nonsense suppression is ≤ 0.026.
In the case of G18C A30G G86U it was ≤ 0.026.
As to G67A G86C, the nonsense suppression is ≤ 0.026.
Turning to U58G G67C, the nonsense suppression was ≤ 0.026.
For U35A C68G, the nonsense suppression is ≤ 0.026.
Take C3A G28U G65C: the nonsense suppression is ≤ 0.026.
Consider A62C G86A, for which the nonsense suppression was ≤ 0.026.
In the case of C29U U35C G78C A89G, the nonsense suppression was ≤ 0.026.
Take A30U U57C C72U: the nonsense suppression is ≤ 0.026.
U8A A9U C12A: the nonsense suppression is ≤ 0.026.
Turning to C3U U20A U63G C72G, the nonsense suppression was ≤ 0.026.
U20G A30C A60G: the nonsense suppression was ≤ 0.026.
In the case of U16C A33C it was ≤ 0.026.
In the case of C56A G67U U71C C72A it was ≤ 0.026; in that of U16C U70C C75A C79A, ≤ 0.026.
As to U21A U70G, the nonsense suppression is ≤ 0.026.
Consider U8C G25U C56G U58C C68G, for which the nonsense suppression was ≤ 0.026.
In the case of C27U U63C it was 0.0314; in that of A23G A54U, 0.0263.
In the case of U55A U76G, the nonsense suppression is ≤ 0.026.
U8G C34U U57A: the nonsense suppression is ≤ 0.026.
In the case of A31G G67C U76A it was ≤ 0.026; in that of G32C G69A C77G G78A, ≤ 0.026.
With U8C C11A U71A A74U G88C, the nonsense suppression is ≤ 0.026.
Under A33G C34G stands ≤ 0.026.
In the case of A24U A30U it was 0.0403; in that of U20C G28A U55G U63C, ≤ 0.026.
For U2G G7C C34U G65C, the nonsense suppression was ≤ 0.026.
Under A9G A74C stands 0.0286; under U8C G19U U55C, ≤ 0.026.
U4A C29G A60C: the nonsense suppression is ≤ 0.026.
As for U8G C29G G84A, the nonsense suppression was ≤ 0.026.
As for C5G G25A C27U A30G G32A, the nonsense suppression was ≤ 0.026.
Under A33G stands 0.346; under U21G G65A, 0.0483; under G10U A31G A33G, ≤ 0.026.
In the case of U20G C64U C81A, the nonsense suppression is ≤ 0.026.
For the variant C27G C29U, the nonsense suppression is ≤ 0.026.
A9C C27G G78U: the nonsense suppression was ≤ 0.026.
Take A54U U57A: the nonsense suppression is ≤ 0.026.
Regarding U8C G66A U70G C77U, the nonsense suppression was ≤ 0.026.
For the variant U20C G84U G86C, the nonsense suppression is ≤ 0.026.
In the case of G7C G10C G25C A62C U76G, the nonsense suppression was ≤ 0.026.
With U2C C75G C81G, the nonsense suppression was ≤ 0.026.
Turning to U4A C11A G19U A87G, the nonsense suppression is ≤ 0.026.
For the variant A33C U58C A60C C72G, the nonsense suppression was ≤ 0.026.
Consider G10A C34G G73U A74C, for which the nonsense suppression is ≤ 0.026.
On to U35G C82G, for which the nonsense suppression is ≤ 0.026.
Consider G78A C82A, for which the nonsense suppression was 0.0338.
As to G7A A14C U22A C29U A30G C34A, the nonsense suppression was ≤ 0.026.
U8C U21A: the nonsense suppression is ≤ 0.026.
In the case of C3A A13U C29G A89U it was ≤ 0.026; in that of C56G C81G, ≤ 0.026.
In the case of G6A G18U G28A C34U A89G, the nonsense suppression is ≤ 0.026.
Under G67C G84C stands ≤ 0.026; under C11A U16A A24U A54G, ≤ 0.026.
Turning to G10C G18C G67A, the nonsense suppression was ≤ 0.026.
Regarding A24G G26A A60U G78C, the nonsense suppression was ≤ 0.026.
